# Source: the supplement of paper PMC8728848
# The list shows a part of the results.
# B1: Langerin K313I (Homo sapiens), Q9UJ71 (protein)
# chain: STLNAQIPELKSDLEKASALNTKIRALQGSLENMSKLLKRQNDILQVVSQGWKYFKGNFYYFSLIPKTWYSAEQFCVSRNSHLTSVTSESEQEFLYKTAGGLIYWIGLTKAGMEGDWSWVDDTPFNKVQSARFWIPGEPNNAGNNEHCGNIKAPSLQAWNDAPCDITFLFICKRPYVPSEP
# Key:
# Assay in all cases: glycan array binding signal (z-score within array); higher = stronger binding
# Details in all cases: glycan notation: IUPAC condensed, linker removed
# Gal(a1-3)Gal(b1-3)GlcNAc = target: Gal(a1-3)Gal(b1-3)GlcNAc
# How it was run: (§1)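 Glycan array binding is given as a within-array Z-score, which can be read as non-binding when negative. The arrays, 3228 of them, came from the Consortium for Functional Glycomics database and were retained only where the protein sequence was available. Z-scores were averaged across arrays of the same protein sequence at different concentrations or buffers and across linkers.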
# [1] = target: Gal(a1-3)Gal(b1-3)GlcNAc(b1-2)Man
# How it was run: as §1
# [2] = target: Gal(a1-3)Gal(b1-3)GlcNAc(b1-2)Man(a1-3)[Gal(a1-3)Gal(b1-3)GlcNAc(b1-2)Man(a1-6)]Man(b1-4)GlcNAc(b1-4)GlcNAc
# How it was run: as §1
# [3] = target: Gal(a1-3)Gal(b1-3)GlcNAc(b1-3)GalNAc
# How it was run: as §1
# [4] = target: Gal(a1-3)Gal(b1-3)GlcNAc(b1-6)GalNAc
# How it was run: as §1
# [5] = target: Gal(a1-3)Gal(b1-3)[Fuc(a1-4)]GlcNAc(b1-2)Man(a1-3)[Gal(a1-3)Gal(b1-3)[Fuc(a1-4)]GlcNAc(b1-2)Man(a1-6)]Man(b1-4)GlcNAc(b1-4)GlcNAc
# How it was run: as §1
# Gal(a1-3)Gal(b1-4)Glc = target: Gal(a1-3)Gal(b1-4)Glc
# How it was run: as §1
# Gal(a1-3)Gal(b1-4)GlcNAc = target: Gal(a1-3)Gal(b1-4)GlcNAc
# How it was run: as §1
# [6] = target: Gal(a1-3)Gal(b1-4)GlcNAc(b1-2)Man
# How it was run: as §1
# [7] = target: Gal(a1-3)Gal(b1-4)GlcNAc(b1-2)Man(a1-3)[Gal(a1-3)Gal(b1-4)GlcNAc(b1-2)Man(a1-6)]Man(b1-4)GlcNAc(b1-4)GlcNAc
# How it was run: as §1
# [8] = target: Gal(a1-3)Gal(b1-4)GlcNAc(b1-3)GalNAc
# How it was run: as §1
# [9] = target: Gal(a1-3)Gal(b1-4)GlcNAc(b1-6)GalNAc
# How it was run: as §1
# [10] = target: Gal(a1-3)Gal(b1-4)[Fuc(a1-3)]GlcNAc
# How it was run: as §1
# [11] = target: Gal(a1-3)Gal(b1-4)[Fuc(a1-3)]GlcNAc(b1-2)Man(a1-3)[Gal(a1-3)Gal(b1-4)[Fuc(a1-3)]GlcNAc(b1-2)Man(a1-6)]Man(b1-4)GlcNAc(b1-4)GlcNAc
# How it was run: as §1
# Gal(a1-3)GalNAc = target: Gal(a1-3)GalNAc
# How it was run: as §1
# [12] = target: Gal(a1-3)[Gal(a1-4)]Gal(b1-4)GlcNAc
# How it was run: as §1
# [13] = target: Gal(a1-4)Gal(b1-3)GlcNAc(b1-2)Man(a1-3)[Gal(a1-4)Gal(b1-3)GlcNAc(b1-2)Man(a1-6)]Man(b1-4)GlcNAc(b1-4)GlcNAc
# How it was run: as §1
# Gal(a1-4)Gal(b1-4)Glc = target: Gal(a1-4)Gal(b1-4)Glc
# How it was run: as §1
# Gal(a1-4)Gal(b1-4)GlcNAc = target: Gal(a1-4)Gal(b1-4)GlcNAc
# How it was run: as §1
# [14] = target: Gal(a1-4)Gal(b1-4)GlcNAc(b1-2)Man(a1-3)[Gal(a1-4)Gal(b1-4)GlcNAc(b1-2)Man(a1-6)]Man(b1-4)GlcNAc(b1-4)GlcNAc
# How it was run: as §1
# [15] = target: Gal(a1-4)Gal(b1-4)GlcNAc(b1-3)Gal(b1-4)Glc
# How it was run: as §1
# Gal(a1-4)GlcNAc = target: Gal(a1-4)GlcNAc
# How it was run: as §1
# Gal(a1-6)Glc = target: Gal(a1-6)Glc
# How it was run: as §1
# Gal(b1-2)Gal = target: Gal(b1-2)Gal
# How it was run: as §1
# Gal(b1-3)Gal = target: Gal(b1-3)Gal
# How it was run: as §1
# Gal(b1-3)Gal(b1-4)GlcNAc = target: Gal(b1-3)Gal(b1-4)GlcNAc
# How it was run: as §1
# Gal(b1-3)GalNAc = target: Gal(b1-3)GalNAc
# How it was run: as §1
# [16] = target: Gal(b1-3)GalNAc(a1-3)[Fuc(a1-2)]Gal(b1-4)Glc
# How it was run: as §1
# [17] = target: Gal(b1-3)GalNAc(a1-3)[Fuc(a1-2)]Gal(b1-4)GlcNAc
# How it was run: as §1
# Gal(b1-3)GalNAc(b1-3)Gal = target: Gal(b1-3)GalNAc(b1-3)Gal
# How it was run: as §1
# [18] = target: Gal(b1-3)GalNAc(b1-3)Gal(a1-4)Gal(b1-4)Glc
# How it was run: as §1
# [19] = target: Gal(b1-3)GalNAc(b1-4)Gal(b1-4)Glc
# How it was run: as §1
# [20] = target: Gal(b1-3)GalNAc(b1-4)[Neu5Ac(a2-3)]Gal(b1-4)Glc
# How it was run: as §1
# Gal(b1-3)GlcNAc = target: Gal(b1-3)GlcNAc
# How it was run: as §1
# [21] = target: Gal(b1-3)GlcNAc(a1-3)Gal(b1-4)GlcNAc
# How it was run: as §1
# [22] = target: Gal(b1-3)GlcNAc(a1-6)Gal(b1-4)GlcNAc
# How it was run: as §1
# Gal(b1-3)GlcNAc(b1-2)Man = target: Gal(b1-3)GlcNAc(b1-2)Man
# How it was run: as §1
# [23] = target: Gal(b1-3)GlcNAc(b1-2)Man(a1-3)[Gal(b1-3)GlcNAc(b1-2)Man(a1-6)]Man(b1-4)GlcNAc(b1-4)GlcNAc
# How it was run: as §1
binder,measurement,setting,value
B1,glycan array binding signal (z-score),Gal(a1-3)Gal(b1-3)GlcNAc,-0.36
same,glycan array binding signal (z-score),[1],-0.333
same,glycan array binding signal (z-score),[2],0.188
same,glycan array binding signal (z-score),[3],-0.137
same,glycan array binding signal (z-score),[4],0.02
same,glycan array binding signal (z-score),[5],0.468
same,glycan array binding signal (z-score),Gal(a1-3)Gal(b1-4)Glc,-0.295
same,glycan array binding signal (z-score),Gal(a1-3)Gal(b1-4)GlcNAc,-0.394
same,glycan array binding signal (z-score),[6],-0.325
same,glycan array binding signal (z-score),[7],0.158
same,glycan array binding signal (z-score),[8],-0.309
same,glycan array binding signal (z-score),[9],-0.174
same,glycan array binding signal (z-score),[10],-0.326
same,glycan array binding signal (z-score),[11],0.073
same,glycan array binding signal (z-score),Gal(a1-3)GalNAc,-0.251
same,glycan array binding signal (z-score),[12],-0.37
same,glycan array binding signal (z-score),[13],-0.148
same,glycan array binding signal (z-score),Gal(a1-4)Gal(b1-4)Glc,-0.008
same,glycan array binding signal (z-score),Gal(a1-4)Gal(b1-4)GlcNAc,-0.338
same,glycan array binding signal (z-score),[14],0.017
same,glycan array binding signal (z-score),[15],-0.285
same,glycan array binding signal (z-score),Gal(a1-4)GlcNAc,-0.305
same,glycan array binding signal (z-score),Gal(a1-6)Glc,-0.125
same,glycan array binding signal (z-score),Gal(b1-2)Gal,-0.154
same,glycan array binding signal (z-score),Gal(b1-3)Gal,-0.232
same,glycan array binding signal (z-score),Gal(b1-3)Gal(b1-4)GlcNAc,-0.258
same,glycan array binding signal (z-score),Gal(b1-3)GalNAc,-0.319
same,glycan array binding signal (z-score),[16],-0.258
same,glycan array binding signal (z-score),[17],-0.314
same,glycan array binding signal (z-score),Gal(b1-3)GalNAc(b1-3)Gal,-0.193
same,glycan array binding signal (z-score),[18],-0.275
same,glycan array binding signal (z-score),[19],-0.338
same,glycan array binding signal (z-score),[20],-0.31
same,glycan array binding signal (z-score),Gal(b1-3)GlcNAc,-0.378
same,glycan array binding signal (z-score),[21],-0.371
same,glycan array binding signal (z-score),[22],-0.353
same,glycan array binding signal (z-score),Gal(b1-3)GlcNAc(b1-2)Man,-0.077
same,glycan array binding signal (z-score),[23],0.043
